Laboratory results as given in paper PMC3297496.
No constants are given. Whether binding was seen depends on the method and setting. For some of these results: Binding seen in cells or lysates may run through a third protein. Some entries that bind do so weakly or less than the wild type. Tags and fused reporters may be left off the sequences shown.

T1: DOP-2IL-CIV (DOP-2XL amino acids 821-849), split-ubiquitin bait in pBT3-SUC (C. elegans) (UniProt E7EM37)
T1 sequence: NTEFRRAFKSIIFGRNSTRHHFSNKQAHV

T2: DOP-2IL-CI (DOP-2XL amino acids 64-849), split-ubiquitin bait in pBT3-SUC (C. elegans) (UniProt E7EM37)
T2 sequence: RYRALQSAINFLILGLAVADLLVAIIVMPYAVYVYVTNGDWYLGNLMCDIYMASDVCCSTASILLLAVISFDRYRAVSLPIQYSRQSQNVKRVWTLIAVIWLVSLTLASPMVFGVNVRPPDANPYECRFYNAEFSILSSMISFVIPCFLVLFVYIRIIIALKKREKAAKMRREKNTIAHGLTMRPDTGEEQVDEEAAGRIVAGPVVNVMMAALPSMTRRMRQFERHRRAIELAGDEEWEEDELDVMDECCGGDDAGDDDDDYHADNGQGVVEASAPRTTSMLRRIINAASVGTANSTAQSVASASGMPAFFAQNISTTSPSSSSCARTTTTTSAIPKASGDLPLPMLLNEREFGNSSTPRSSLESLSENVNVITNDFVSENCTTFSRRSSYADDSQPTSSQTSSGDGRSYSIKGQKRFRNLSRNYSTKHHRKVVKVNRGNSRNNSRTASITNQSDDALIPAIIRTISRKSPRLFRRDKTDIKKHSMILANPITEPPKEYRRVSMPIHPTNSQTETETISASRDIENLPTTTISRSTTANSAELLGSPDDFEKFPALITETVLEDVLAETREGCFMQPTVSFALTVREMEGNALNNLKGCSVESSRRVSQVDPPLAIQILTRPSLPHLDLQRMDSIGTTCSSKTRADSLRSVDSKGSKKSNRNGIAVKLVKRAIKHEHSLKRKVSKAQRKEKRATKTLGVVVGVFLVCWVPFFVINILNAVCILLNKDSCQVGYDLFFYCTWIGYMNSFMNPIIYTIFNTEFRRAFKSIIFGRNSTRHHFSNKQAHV

T3: DOP-2IL-CIII (DOP-2XL amino acids 224-849), split-ubiquitin bait in pBT3-SUC (C. elegans) (UniProt E7EM37)
T3 sequence: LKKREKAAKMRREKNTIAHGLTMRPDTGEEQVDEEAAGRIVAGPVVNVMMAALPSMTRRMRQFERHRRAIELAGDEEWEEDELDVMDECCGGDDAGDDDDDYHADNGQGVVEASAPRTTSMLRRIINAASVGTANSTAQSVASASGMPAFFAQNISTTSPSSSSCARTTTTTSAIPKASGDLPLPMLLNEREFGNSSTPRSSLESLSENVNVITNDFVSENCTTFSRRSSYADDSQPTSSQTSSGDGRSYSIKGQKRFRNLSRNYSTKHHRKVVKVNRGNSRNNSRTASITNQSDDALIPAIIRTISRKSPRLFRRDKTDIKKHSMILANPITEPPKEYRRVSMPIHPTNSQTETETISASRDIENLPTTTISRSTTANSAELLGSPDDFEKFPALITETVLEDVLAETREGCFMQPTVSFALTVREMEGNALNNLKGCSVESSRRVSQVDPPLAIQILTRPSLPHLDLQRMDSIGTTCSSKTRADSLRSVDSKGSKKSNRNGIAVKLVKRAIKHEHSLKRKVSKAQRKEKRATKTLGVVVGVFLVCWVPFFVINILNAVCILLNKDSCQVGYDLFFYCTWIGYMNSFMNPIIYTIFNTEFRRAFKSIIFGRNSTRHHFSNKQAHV

T4: C. elegans D2-like dopamine receptor DOP-2XL, full-length split-ubiquitin bait (dop-2c in pBT3-STE) (C. elegans) (UniProt E7EM37)
T4 sequence: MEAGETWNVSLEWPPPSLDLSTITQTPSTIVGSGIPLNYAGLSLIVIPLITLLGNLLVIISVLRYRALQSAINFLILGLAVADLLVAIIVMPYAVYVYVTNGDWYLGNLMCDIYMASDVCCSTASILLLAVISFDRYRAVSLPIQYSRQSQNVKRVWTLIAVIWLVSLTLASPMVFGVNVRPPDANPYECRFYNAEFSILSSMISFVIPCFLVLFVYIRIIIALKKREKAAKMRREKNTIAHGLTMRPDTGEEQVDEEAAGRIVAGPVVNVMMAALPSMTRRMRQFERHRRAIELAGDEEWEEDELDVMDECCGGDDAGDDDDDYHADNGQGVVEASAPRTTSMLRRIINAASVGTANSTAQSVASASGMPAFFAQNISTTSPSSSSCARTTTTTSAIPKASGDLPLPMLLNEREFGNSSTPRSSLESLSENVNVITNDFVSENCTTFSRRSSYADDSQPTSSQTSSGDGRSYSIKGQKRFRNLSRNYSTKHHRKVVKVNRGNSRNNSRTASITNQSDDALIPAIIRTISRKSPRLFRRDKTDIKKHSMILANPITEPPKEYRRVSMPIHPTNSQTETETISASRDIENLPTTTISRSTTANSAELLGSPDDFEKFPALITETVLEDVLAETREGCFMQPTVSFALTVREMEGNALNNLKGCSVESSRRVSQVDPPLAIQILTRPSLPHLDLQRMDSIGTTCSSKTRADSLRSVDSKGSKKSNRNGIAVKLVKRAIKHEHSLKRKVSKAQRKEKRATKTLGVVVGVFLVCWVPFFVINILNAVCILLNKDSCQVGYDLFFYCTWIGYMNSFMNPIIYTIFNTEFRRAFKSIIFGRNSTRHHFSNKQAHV

T5: DOP-2IL-CII (DOP-2XL amino acids 124-849), split-ubiquitin bait in pBT3-SUC (C. elegans) (UniProt E7EM37)
T5 sequence: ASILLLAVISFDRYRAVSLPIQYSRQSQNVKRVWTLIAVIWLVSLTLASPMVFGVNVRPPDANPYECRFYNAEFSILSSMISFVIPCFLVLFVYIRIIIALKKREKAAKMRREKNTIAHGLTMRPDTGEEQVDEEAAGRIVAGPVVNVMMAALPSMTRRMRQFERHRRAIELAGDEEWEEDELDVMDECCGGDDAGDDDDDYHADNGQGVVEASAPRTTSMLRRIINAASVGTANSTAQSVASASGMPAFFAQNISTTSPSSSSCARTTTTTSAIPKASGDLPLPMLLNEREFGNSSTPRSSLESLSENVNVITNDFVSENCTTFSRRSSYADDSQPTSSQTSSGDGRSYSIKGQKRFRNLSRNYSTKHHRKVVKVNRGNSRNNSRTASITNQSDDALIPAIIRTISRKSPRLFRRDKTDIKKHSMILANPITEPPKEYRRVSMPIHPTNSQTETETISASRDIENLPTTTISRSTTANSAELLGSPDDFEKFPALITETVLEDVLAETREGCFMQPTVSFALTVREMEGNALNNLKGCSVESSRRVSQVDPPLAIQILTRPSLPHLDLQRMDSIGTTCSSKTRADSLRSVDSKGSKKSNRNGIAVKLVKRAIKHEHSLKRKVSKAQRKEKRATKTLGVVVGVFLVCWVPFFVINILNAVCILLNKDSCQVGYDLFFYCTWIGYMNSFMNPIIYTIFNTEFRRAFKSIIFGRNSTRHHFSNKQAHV

T6: GST:GPA-14 fusion protein (C. elegans) (UniProt Q9BIG2)
T6 sequence: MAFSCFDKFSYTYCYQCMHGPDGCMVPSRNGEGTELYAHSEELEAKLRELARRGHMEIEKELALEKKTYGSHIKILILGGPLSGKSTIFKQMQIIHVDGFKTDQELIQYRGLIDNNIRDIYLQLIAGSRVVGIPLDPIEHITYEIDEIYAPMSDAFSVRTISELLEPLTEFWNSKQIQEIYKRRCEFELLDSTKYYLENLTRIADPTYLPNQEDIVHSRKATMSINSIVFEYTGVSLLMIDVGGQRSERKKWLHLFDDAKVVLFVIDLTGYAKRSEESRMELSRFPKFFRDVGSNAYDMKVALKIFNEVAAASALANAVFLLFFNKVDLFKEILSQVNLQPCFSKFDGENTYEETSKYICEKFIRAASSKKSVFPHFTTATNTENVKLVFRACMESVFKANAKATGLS

T7: GST:GPA-15 fusion protein (C. elegans) (UniProt P91907)
T7 sequence: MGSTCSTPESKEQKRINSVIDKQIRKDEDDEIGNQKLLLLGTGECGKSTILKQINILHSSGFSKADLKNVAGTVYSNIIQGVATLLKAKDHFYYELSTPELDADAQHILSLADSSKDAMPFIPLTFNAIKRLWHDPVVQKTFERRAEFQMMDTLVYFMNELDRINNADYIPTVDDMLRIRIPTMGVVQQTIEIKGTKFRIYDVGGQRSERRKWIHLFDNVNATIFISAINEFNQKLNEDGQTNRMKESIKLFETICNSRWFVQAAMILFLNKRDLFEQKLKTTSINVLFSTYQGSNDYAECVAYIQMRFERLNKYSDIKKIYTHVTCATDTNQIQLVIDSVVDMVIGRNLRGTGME


What was measured:
[1] = target: T1, DOP-2IL-CIV (DOP-2XL amino acids 821-849), split-ubiquitin bait in pBT3-SUC (C. elegans); experiment: two-hybrid; split-ubiquitin pair-wise assay in yeast: DOP-2XL baits (full length in pBT3-STE, truncations in pBT3-SUC) with NubG preys (pPR3-N, pPR3-STE, pDL2-Alg5); growth on SD/-Ade-His-Leu-Trp with 1 mM 3-AT and X-gal filter assay
[2] = target: T2, DOP-2IL-CI (DOP-2XL amino acids 64-849), split-ubiquitin bait in pBT3-SUC (C. elegans); experiment: as above
[3] = target: T3, DOP-2IL-CIII (DOP-2XL amino acids 224-849), split-ubiquitin bait in pBT3-SUC (C. elegans); experiment: as above
[4] = target: T4, C. elegans D2-like dopamine receptor DOP-2XL, full-length split-ubiquitin bait (dop-2c in pBT3-STE) (C. elegans); experiment: as above
[5] = target: T5, DOP-2IL-CII (DOP-2XL amino acids 124-849), split-ubiquitin bait in pBT3-SUC (C. elegans); experiment: as above
[6] = target: T6, GST:GPA-14 fusion protein (C. elegans); experiment: pull-down; GST pull-down: purified GST fusion (5 ul eluted) with 20 ul in-vitro translated DOP-2XL in binding buffer with 0.2% BSA, 6 hrs at 4°C, Magne-GST particles, SDS-PAGE, colorimetric detection of biotinylated lysine; only the target purified
[7] = target: T7, GST:GPA-15 fusion protein (C. elegans); experiment: as above

binding [1]	binding [2]	binding [3]	binding [4]	binding [5]	binding [6]	binding [7]	Binder
no binding	binds	binds weakly	binds	binds			GPA-14, split-ubiquitin prey in pPR3-STE (NubG fusion) (protein, UniProt Q9BIG2 1-408) MAFSCFDKFSYTYCYQCMHGPDGCMVPSRNGEGTELYAHSEELEAKLRELARRGHMEIEKELALEKKTYGSHIKILILGGPLSGKSTIFKQMQIIHVDGFKTDQELIQYRGLIDNNIRDIYLQLIAGSRVVGIPLDPIEHITYEIDEIYAPMSDAFSVRTISELLEPLTEFWNSKQIQEIYKRRCEFELLDSTKYYLENLTRIADPTYLPNQEDIVHSRKATMSINSIVFEYTGVSLLMIDVGGQRSERKKWLHLFDDAKVVLFVIDLTGYAKRSEESRMELSRFPKFFRDVGSNAYDMKVALKIFNEVAAASALANAVFLLFFNKVDLFKEILSQVNLQPCFSKFDGENTYEETSKYICEKFIRAASSKKSVFPHFTTATNTENVKLVFRACMESVFKANAKATGLS
					binds	no binding	DOP-2XL, in-vitro translated (dop-2c in pIVEX2.3d) (receptor, UniProt E7EM37 1-849, biotinylated lysine incorporated during translation (biotinylated lysyl-tRNA)) MEAGETWNVSLEWPPPSLDLSTITQTPSTIVGSGIPLNYAGLSLIVIPLITLLGNLLVIISVLRYRALQSAINFLILGLAVADLLVAIIVMPYAVYVYVTNGDWYLGNLMCDIYMASDVCCSTASILLLAVISFDRYRAVSLPIQYSRQSQNVKRVWTLIAVIWLVSLTLASPMVFGVNVRPPDANPYECRFYNAEFSILSSMISFVIPCFLVLFVYIRIIIALKKREKAAKMRREKNTIAHGLTMRPDTGEEQVDEEAAGRIVAGPVVNVMMAALPSMTRRMRQFERHRRAIELAGDEEWEEDELDVMDECCGGDDAGDDDDDYHADNGQGVVEASAPRTTSMLRRIINAASVGTANSTAQSVASASGMPAFFAQNISTTSPSSSSCARTTTTTSAIPKASGDLPLPMLLNEREFGNSSTPRSSLESLSENVNVITNDFVSENCTTFSRRSSYADDSQPTSSQTSSGDGRSYSIKGQKRFRNLSRNYSTKHHRKVVKVNRGNSRNNSRTASITNQSDDALIPAIIRTISRKSPRLFRRDKTDIKKHSMILANPITEPPKEYRRVSMPIHPTNSQTETETISASRDIENLPTTTISRSTTANSAELLGSPDDFEKFPALITETVLEDVLAETREGCFMQPTVSFALTVREMEGNALNNLKGCSVESSRRVSQVDPPLAIQILTRPSLPHLDLQRMDSIGTTCSSKTRADSLRSVDSKGSKKSNRNGIAVKLVKRAIKHEHSLKRKVSKAQRKEKRATKTLGVVVGVFLVCWVPFFVINILNAVCILLNKDSCQVGYDLFFYCTWIGYMNSFMNPIIYTIFNTEFRRAFKSIIFGRNSTRHHFSNKQAHV
